# The supplement of paper PMC8728848
# Shown is part of a subset that was picked to be rich in the strongest signals.
# What was measured:
# Assay in all cases: glycan array binding signal (z-score within array); higher = stronger binding
# Conditions in all cases: glycan notation: IUPAC condensed, linker removed
# [1] = tested on: Gal(b1-3)GlcNAc(b1-3)Gal(b1-4)Glc
# Summary of the method: (§1)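 Negative Z-scores can be read as non-binding. The Z-score is calculated within each array and then averaged across arrays of one protein sequence at different concentrations or buffers and across linkers. Arrays, 3228 in all, were curated from the Consortium for Functional Glycomics database and kept only where the protein sequence was available.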
# [2] = tested on: Gal(b1-3)[Neu5Ac(b2-6)]GalNAc
# Summary of the method: as §1
# [3] = tested on: Gal(b1-3)[Fuc(a1-4)]GlcNAc(b1-2)Man(a1-3)[Gal(b1-3)[Fuc(a1-4)]GlcNAc(b1-2)Man(a1-6)]Man(b1-4)GlcNAc(b1-4)[Fuc(a1-6)]GlcNAc
# Summary of the method: as §1
# [4] = tested on: Gal(b1-3)[Fuc(a1-4)]GlcNAc(b1-3)Gal(b1-4)GlcNAc
# Summary of the method: as §1
# [5] = tested on: Gal(b1-3)[GlcNAc(b1-6)]GalNAc
# Summary of the method: as §1
# [6] = tested on: Gal(b1-3)GlcNAc(b1-3)Gal(b1-4)[Fuc(a1-3)]GlcNAc(b1-6)[Gal(b1-3)GlcNAc(b1-3)]Gal(b1-4)Glc
# Summary of the method: as §1
# [7] = tested on: Gal(b1-3)[Neu5Ac(a2-6)]GalNAc
# Summary of the method: as §1
# [8] = tested on: Gal(b1-3)GlcNAc(b1-3)Gal(b1-4)GlcNAc(b1-3)Gal(b1-4)GlcNAc(b1-2)[Gal(b1-3)GlcNAc(b1-3)Gal(b1-4)GlcNAc(b1-3)Gal(b1-4)GlcNAc(b1-6)]Man(a1-6)[Gal(b1-3)GlcNAc(b1-3)Gal(b1-4)GlcNAc(b1-3)Gal(b1-4)GlcNAc(b1-2)Man(a1-3)]Man(b1-4)GlcNAc(b1-4)[Fuc(a1-6)]GlcNAc
# Summary of the method: as §1
# [9] = tested on: Gal(b1-3)GlcNAc(b1-3)Gal(b1-4)GlcNAc
# Summary of the method: as §1
# [10] = tested on: Gal(b1-3)[GlcNAc(b1-6)]GlcNAc
# Summary of the method: as §1
# [11] = tested on: Gal(b1-3)GlcNAc(b1-3)Gal(b1-4)[Fuc(a1-3)]GlcNAc
# Summary of the method: as §1
# [12] = tested on: Gal(b1-3)[Fuc(a1-4)]GlcNAc(b1-2)Man
# Summary of the method: as §1
# [13] = tested on: Gal(b1-3)[Fuc(a1-4)]GlcNAc(b1-3)Gal(b1-3)[Fuc(a1-4)]GlcNAc
# Summary of the method: as §1
# Gal(b1-3)GlcNAc(b1-2)Man = tested on: Gal(b1-3)GlcNAc(b1-2)Man
# Summary of the method: as §1
# [14] = tested on: Gal(b1-3)[Fuc(a1-4)]GlcNAc(b1-2)Man(a1-3)[Gal(b1-3)[Fuc(a1-4)]GlcNAc(b1-2)Man(a1-6)]Man(b1-4)GlcNAc(b1-4)GlcNAc
# Summary of the method: as §1
# [15] = tested on: Gal(b1-3)[Fuc(a1-4)]GlcNAc(b1-6)GalNAc
# Summary of the method: as §1
# Gal(b1-3)GlcNAc = tested on: Gal(b1-3)GlcNAc
# Summary of the method: as §1
# [16] = tested on: Gal(b1-3)GlcNAc(b1-6)GalNAc
# Summary of the method: as §1
# [17] = tested on: Gal(b1-3)[Fuc(a1-4)]GlcNAc(b1-3)Gal(b1-4)[Fuc(a1-3)]GlcNAc
# Summary of the method: as §1
# [18] = tested on: Gal(b1-3)[Neu5Ac(a2-6)]GlcNAc(a1-4)Gal(b1-4)Glc
# Summary of the method: as §1
substance,measurement,setting,value
NCAM1 (Homo sapiens) (chain not printed),glycan array binding signal (z-score),[1],-0.354
same,glycan array binding signal (z-score),[2],-0.339
CLEC-2 (Homo sapiens) (chain not printed),glycan array binding signal (z-score),[3],0.664
same,glycan array binding signal (z-score),[4],-0.004
same,glycan array binding signal (z-score),[2],-0.104
M-Ficolin G221F A256V (Homo sapiens) (chain not printed),glycan array binding signal (z-score),[3],-0.332
same,glycan array binding signal (z-score),[5],-0.331
Gal 3 (Homo sapiens) (chain not printed),glycan array binding signal (z-score),[1],0.206
same,glycan array binding signal (z-score),[6],-0.219
M-Ficolin (Homo sapiens) (chain not printed),glycan array binding signal (z-score),[7],-0.154
Thrombomodulin Extracellular (Homo sapiens) (chain not printed),glycan array binding signal (z-score),[8],7.65
same,glycan array binding signal (z-score),[9],-0.382
Gal 8-short (Homo sapiens) (chain not printed),glycan array binding signal (z-score),[10],0.955
M-Ficolin G221F (Homo sapiens) (chain not printed),glycan array binding signal (z-score),[6],-0.162
M-Ficolin A256V (Homo sapiens) (chain not printed),glycan array binding signal (z-score),[3],-0.128
Gal 8 long (Homo sapiens) (chain not printed),glycan array binding signal (z-score),[1],-0.22
same,glycan array binding signal (z-score),[10],-0.303
FGF2 (chain not printed),glycan array binding signal (z-score),[11],0.708
same,glycan array binding signal (z-score),[12],1.9
L-Ficolin (Homo sapiens) (chain not printed),glycan array binding signal (z-score),[13],-0.516
Meso764 (Homo sapiens) (chain not printed),glycan array binding signal (z-score),Gal(b1-3)GlcNAc(b1-2)Man,0.689
same,glycan array binding signal (z-score),[9],-0.725
same,glycan array binding signal (z-score),[14],5.6
same,glycan array binding signal (z-score),[15],-0.749
same,glycan array binding signal (z-score),[5],-0.305
Collectin K1 (Homo sapiens) (chain not printed),glycan array binding signal (z-score),Gal(b1-3)GlcNAc,-0.094
same,glycan array binding signal (z-score),[14],0.194
same,glycan array binding signal (z-score),[3],2.11
same,glycan array binding signal (z-score),[13],-0.14
MBP (Homo sapiens) (chain not printed),glycan array binding signal (z-score),[16],-0.396
same,glycan array binding signal (z-score),[13],-0.346
STIM-3 (Mus musculus) (chain not printed),glycan array binding signal (z-score),[4],0.787
Galectin-8 C-terminal CRD (Homo sapiens) (chain not printed),glycan array binding signal (z-score),[17],-0.136
Serum Amyloid P component (Homo sapiens) (chain not printed),glycan array binding signal (z-score),[18],-0.356
